# Measurements published in the supplement of paper PMC8728848.
# The other results are listed elsewhere or left out.
# B1: AT1G15820(2) (Arabidopsis thaliana), Q9LMQ2 (protein)
# chain: MAMAVSGAVLSGLGSSFLTGGKRGATALASGVGTGAQRVGRKTLIVAAAAAQPKKSWIPAVKGGGNFLDPEWLDGSLPGDFGFDPLGLGKDPAFLKWYREAELIHGRWAMAAVLGIFVGQAWSGVAWFEAGAQPDAIAPFSFGSLLGTQLLLMGWVESKRWVDFFNPDSQSVEWATPWSKTAENFANYTGDQGYPGGRFFDPLGLAGKNRDGVYEPDFEKLERLKLAEIKHSRLAMVAMLIFYFEAGQGKTPLGALGL
# What was measured:
# Assay in all cases: glycan array binding signal (z-score within array); higher = stronger binding
# Details in all cases: glycan notation: IUPAC condensed, linker removed
# [1] = target: Neu5Ac(a2-3)Gal(b1-4)GlcNAc(b1-2)[Neu5Ac(a2-3)Gal(b1-4)GlcNAc(b1-4)]Man(a1-3)[GlcNAc(b1-4)][Neu5Ac(a2-3)Gal(b1-4)GlcNAc(b1-2)[Neu5Ac(a2-3)Gal(b1-4)GlcNAc(b1-6)]Man(a1-6)]Man(b1-4)GlcNAc(b1-4)GlcNAc
# Method in brief: (§1)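 The binding signal is a Z-score computed within each array. Data were drawn from 3228 arrays in the Consortium for Functional Glycomics database, restricted to those with a known protein sequence. Scores were averaged over arrays of the same protein sequence at different concentrations or buffers, and over linkers, and negative values can be taken as non-binding.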
# [2] = target: Neu5Ac(a2-3)Gal(b1-4)GlcNAc(b1-2)[Neu5Ac(a2-3)Gal(b1-4)GlcNAc(b1-4)]Man(a1-3)[GlcNAc(b1-4)][Neu5Ac(a2-3)Gal(b1-4)GlcNAc(b1-4)Man(a1-6)]Man(b1-4)GlcNAc(b1-4)GlcNAc
# Method in brief: as §1
# [3] = target: Neu5Ac(a2-3)Gal(b1-4)GlcNAc(b1-2)[Neu5Ac(a2-3)Gal(b1-4)GlcNAc(b1-6)]Man(a1-6)[Neu5Ac(a2-3)Gal(b1-4)GlcNAc(b1-2)Man(a1-3)]Man(b1-4)GlcNAc(b1-4)GlcNAc
# Method in brief: as §1
# [4] = target: Neu5Ac(a2-3)Gal(b1-4)GlcNAc(b1-2)[Neu5Ac(a2-3)Gal(b1-4)GlcNAc(b1-6)]Man(a1-6)[Neu5Ac(a2-3)Gal(b1-4)GlcNAc(b1-2)Man(a1-3)][GlcNAc(b1-4)]Man(b1-4)GlcNAc(b1-4)GlcNAc
# Method in brief: as §1
# [5] = target: Neu5Ac(a2-3)Gal(b1-4)GlcNAc(b1-3)Gal
# Method in brief: as §1
# [6] = target: Neu5Ac(a2-3)Gal(b1-4)GlcNAc(b1-3)Gal(b1-3)GlcNAc
# Method in brief: as §1
# [7] = target: Neu5Ac(a2-3)Gal(b1-4)GlcNAc(b1-3)Gal(b1-4)GlcNAc
# Method in brief: as §1
# [8] = target: Neu5Ac(a2-3)Gal(b1-4)GlcNAc(b1-3)Gal(b1-4)GlcNAc(b1-2)Man(a1-3)[Neu5Ac(a2-3)Gal(b1-4)GlcNAc(b1-3)Gal(b1-4)GlcNAc(b1-2)Man(a1-6)]Man(b1-4)GlcNAc(b1-4)GlcNAc
# Method in brief: as §1
# [9] = target: Neu5Ac(a2-3)Gal(b1-4)GlcNAc(b1-3)Gal(b1-4)GlcNAc(b1-3)Gal(b1-4)GlcNAc
# Method in brief: as §1
# [10] = target: Neu5Ac(a2-3)Gal(b1-4)GlcNAc(b1-3)Gal(b1-4)GlcNAc(b1-3)Gal(b1-4)GlcNAc(b1-2)Man(a1-3)[Neu5Ac(a2-3)Gal(b1-4)GlcNAc(b1-3)Gal(b1-4)GlcNAc(b1-3)Gal(b1-4)GlcNAc(b1-2)Man(a1-6)]GalNAc
# Method in brief: as §1
# [11] = target: Neu5Ac(a2-3)Gal(b1-4)GlcNAc(b1-3)Gal(b1-4)GlcNAc(b1-3)GalNAc
# Method in brief: as §1
# [12] = target: Neu5Ac(a2-3)Gal(b1-4)GlcNAc(b1-3)Gal(b1-4)GlcNAc(b1-3)[Neu5Ac(a2-3)Gal(b1-4)GlcNAc(b1-3)Gal(b1-4)GlcNAc(b1-6)]GalNAc
# Method in brief: as §1
# [13] = target: Neu5Ac(a2-3)Gal(b1-4)GlcNAc(b1-3)Gal(b1-4)GlcNAc(b1-6)[Gal(b1-3)]GalNAc
# Method in brief: as §1
# [14] = target: Neu5Ac(a2-3)Gal(b1-4)GlcNAc(b1-3)Gal(b1-4)[Fuc(a1-3)]GlcNAc
# Method in brief: as §1
# [15] = target: Neu5Ac(a2-3)Gal(b1-4)GlcNAc(b1-3)GalNAc
# Method in brief: as §1
# [16] = target: Neu5Ac(a2-3)Gal(b1-4)GlcNAc(b1-3)[Neu5Ac(a2-3)Gal(b1-4)GlcNAc(b1-6)]GalNAc
# Method in brief: as §1
# [17] = target: Neu5Ac(a2-3)Gal(b1-4)GlcNAc(b1-6)GalNAc
# Method in brief: as §1
# [18] = target: Neu5Ac(a2-3)Gal(b1-4)GlcNAc(b1-6)[Gal(b1-3)]GalNAc
# Method in brief: as §1
# [19] = target: Neu5Ac(a2-3)Gal(b1-4)GlcNAc(b1-6)[Neu5Ac(a2-3)Gal(b1-3)]GalNAc
# Method in brief: as §1
# [20] = target: Neu5Ac(a2-3)Gal(b1-4)GlcNAc6S
# Method in brief: as §1
# [21] = target: Neu5Ac(a2-3)Gal(b1-4)[Fuc(a1-3)]GlcNAc
# Method in brief: as §1
# [22] = target: Neu5Ac(a2-3)Gal(b1-4)[Fuc(a1-3)]GlcNAc(b1-2)Man
# Method in brief: as §1
# [23] = target: Neu5Ac(a2-3)Gal(b1-4)[Fuc(a1-3)]GlcNAc(b1-3)Gal
# Method in brief: as §1
# [24] = target: Neu5Ac(a2-3)Gal(b1-4)[Fuc(a1-3)]GlcNAc(b1-3)Gal(b1-4)GlcNAc
# Method in brief: as §1
# [25] = target: Neu5Ac(a2-3)Gal(b1-4)[Fuc(a1-3)]GlcNAc(b1-3)Gal(b1-4)[Fuc(a1-3)]GlcNAc(b1-3)Gal(b1-4)[Fuc(a1-3)]GlcNAc
# Method in brief: as §1
# [26] = target: Neu5Ac(a2-3)Gal(b1-4)[Fuc(a1-3)]GlcNAc(b1-3)GalNAc
# Method in brief: as §1
# [27] = target: Neu5Ac(a2-3)Gal(b1-4)[Fuc(a1-3)]GlcNAc(b1-6)[Gal(b1-3)]GalNAc
# Method in brief: as §1
# [28] = target: Neu5Ac(a2-3)Gal(b1-4)[Fuc(a1-3)]GlcNAc(b1-6)[Neu5Ac(a2-3)Gal(b1-3)]GalNAc
# Method in brief: as §1
# [29] = target: Neu5Ac(a2-3)Gal(b1-4)[Fuc(a1-3)]GlcNAc6S
# Method in brief: as §1
# [30] = target: Neu5Ac(a2-3)Gal6S(b1-4)GlcNAc
# Method in brief: as §1
# [31] = target: Neu5Ac(a2-3)Gal6S(b1-4)[Fuc(a1-3)]GlcNAc
# Method in brief: as §1
# Neu5Ac(a2-3)GalNAc = target: Neu5Ac(a2-3)GalNAc
# Method in brief: as §1
# [32] = target: Neu5Ac(a2-3)GalNAc(b1-4)GlcNAc
# Method in brief: as §1
# [33] = target: Neu5Ac(a2-3)[GalNAc(b1-4)]Gal(b1-4)Glc
# Method in brief: as §1
# [34] = target: Neu5Ac(a2-3)[GalNAc(b1-4)]Gal(b1-4)GlcNAc
# Method in brief: as §1
# [35] = target: Neu5Ac(a2-3)[GalNAc(b1-4)]Gal(b1-4)GlcNAc(b1-3)GalNAc
# Method in brief: as §1
# [36] = target: Neu5Ac(a2-3)[Neu5Ac(a2-6)]GalNAc
# Method in brief: as §1
binder,measurement,setting,value
B1,glycan array binding signal (z-score),[1],-0.252
same,glycan array binding signal (z-score),[2],-0.138
same,glycan array binding signal (z-score),[3],0.415
same,glycan array binding signal (z-score),[4],-0.594
same,glycan array binding signal (z-score),[5],-0.098
same,glycan array binding signal (z-score),[6],-0.133
same,glycan array binding signal (z-score),[7],-0.506
same,glycan array binding signal (z-score),[8],0.218
same,glycan array binding signal (z-score),[9],-0.091
same,glycan array binding signal (z-score),[10],0.49
same,glycan array binding signal (z-score),[11],-0.294
same,glycan array binding signal (z-score),[12],-0.444
same,glycan array binding signal (z-score),[13],-0.345
same,glycan array binding signal (z-score),[14],0.338
same,glycan array binding signal (z-score),[15],-0.47
same,glycan array binding signal (z-score),[16],0.172
same,glycan array binding signal (z-score),[17],-0.315
same,glycan array binding signal (z-score),[18],-0.407
same,glycan array binding signal (z-score),[19],-0.772
same,glycan array binding signal (z-score),[20],-0.028
same,glycan array binding signal (z-score),[21],-0.567
same,glycan array binding signal (z-score),[22],0.531
same,glycan array binding signal (z-score),[23],0.274
same,glycan array binding signal (z-score),[24],0.227
same,glycan array binding signal (z-score),[25],-0.228
same,glycan array binding signal (z-score),[26],1.02
same,glycan array binding signal (z-score),[27],-0.204
same,glycan array binding signal (z-score),[28],0.273
same,glycan array binding signal (z-score),[29],0.04
same,glycan array binding signal (z-score),[30],0.438
same,glycan array binding signal (z-score),[31],0.046
same,glycan array binding signal (z-score),Neu5Ac(a2-3)GalNAc,-0.502
same,glycan array binding signal (z-score),[32],-0.255
same,glycan array binding signal (z-score),[33],-0.033
same,glycan array binding signal (z-score),[34],-0.469
same,glycan array binding signal (z-score),[35],-0.111
same,glycan array binding signal (z-score),[36],-0.525
